Measured values reported in PubChem BioAssay AID652104 (National Center for Advancing Translational Sciences (NCATS), 2013).
Among all 410,000 compounds or so, about 7,200 (1.8%) were called active. Inconclusive means that the source gave no clear call. Such entries were picked first, then a sample of the others. Calls follow the shape of the dose curve; as a rule, active = well fitted activation curve with a large enough effect; inconclusive = small, poorly fitted or top-dose-only effect, or another doubt; inactive = no such curve, though single readings can be large or run the other way. No potency is given beside an inconclusive call; the fits are too rough. Positions of bridges follow the written chain, without caps; N, C: chain ends. Non-standard residues stand in square brackets, D forms with d. Residues, ends and D or L forms follow the SMILES beside them. *: point of attachment. X1 = CCC(C)C(N)C1=NC(C(=O)*)CS1; dOrn = NCCC[C@@H](N)C(=O)O

test: qHTS of TDP-43 Inhibitors; details: TDP-43 expressing yeast growth rescue, BacTiter-Glo, 24 h; growth rescue (activation): at 46.1 µM (top of the series) unless noted; also: nearly all actives have a fitted effect of over 50% in size; as to growth rescue (activation): % of control where 0% means no effect
In short: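 Cell-based yeast growth screen: TDP-43 expression induced in galactose, inoculum OD600=0.02 after raffinose pregrowth to mid-log. Read-out BacTiter-Glo luminescence at 24 hr, 30 deg C; inhibition of toxicity seen as signal increase.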
Potency is read from the fitted curve at half-maximal effect; tags tell the direction and shape of the fitted curve.

| Compound | growth rescue (activation) | Potency |
| --- | --- | --- |
| O=C(CN1C(=O)c2ccccc2C1=O)NCCc1c[nH]c2ccc(Cl)cc12 | inactive: 17.5% | – |
| CCCOC(=O)Oc1ccc2c(=O)c(Oc3cc(C)cc(C)c3)coc2c1 | – | inconclusive [activator, partial curve] |
| COc1ccc(NC(=O)C2(C)Cc3c(-c4ccc(N(C)C)cc4)ccnc3O2)cn1 (configuration not stated) | inactive: 2.32% | – |
| O=C1c2ccccc2C(Nc2ccc3c(c2)OCCO3)N1Cc1ccccc1 (configuration not stated) | – | inconclusive [activator, single point] |
| O=C(c1ccc(F)cc1)C1CCN(C(=O)c2c(F)cccc2F)CC1 | – | inconclusive [activator, single point] |
| O=[N+]([O-])c1cccc2nc3ccccc3c(NCCCn3ccnc3[N+](=O)[O-])c12 | – | inconclusive [activator, partial curve] |
| O=C(NC[C@H]1CCCO1)c1cccc2c1C(=O)c1ccc(-c3ccc(F)cc3OCc3ccccc3)cc1S2(=O)=O | inactive: -1.56% | – |
| CCOc1cccc(NC(=O)C2CC(=O)N(C)C(=Nc3cccc(OC)c3)S2)c1 (configuration not stated) | – | active: 35.5 µM |
| O=C(/C=C/c1ccc([N+](=O)[O-])cc1)NCCSCc1ccco1 | – | inconclusive [activator, partial curve] |
| CSc1nc(N)n2nc(C(C)(C)C)cc2n1 | – | active: 17.8 µM |
| O=C(NC1CCCCCC1)C1CCN(C(=O)N2CCOc3ccc(Cl)cc32)CC1 | inactive: 7.92% | – |
| O=C(CN(Cc1ccccc1F)C(=O)Cn1nnc(-c2cccs2)n1)NC1CCCCC1 | – | inconclusive [activator, full curve, poor fit] |
| COc1ccc(-c2sc3cc4c(cc3c2C#CCO)OCO4)cc1 | inactive: 2.61% | – |
| CCC(=O)N1c2ccc(S(=O)(=O)NCCc3ccc(C)cc3)cc2CC1C (configuration not stated) | – | inconclusive [activator, single point] |
| Cc1ccc(NC(=O)c2noc(C(C)C)c2[N+](=O)[O-])cc1 | – | inconclusive [activator, partial curve] |
| COc1cc(C2CC(=O)Oc3cc(C)c(Br)c(C)c32)cc(OC)c1OC (configuration not stated) | – | inconclusive [activator, single point] |
| CC(=O)N1CCOc2cc(S(=O)(=O)NCc3ccccc3Cl)c(C)cc21 | inactive: 1.44% | – |
| O=C(c1cccc(Cl)c1)N1CCN(c2ncccn2)CC1 | – | inconclusive [activator, single point] |
| Oc1ccc(Br)cc1-c1ccnn1-c1ccccc1 | – | inconclusive [activator, single point] |
| Cc1ccc(NC(=O)O/N=C/c2ccc(Br)cc2)cc1 | – | inconclusive [activator, partial curve] |
| CN(C)C(=O)c1cnc(-c2ccccc2)nc1-c1ccccc1 | – | inconclusive [activator, partial curve] |
| CCCOc1ccc(-c2nc(C#N)c(NCC3CCCO3)o2)cc1 (configuration not stated) | – | inconclusive [activator, single point] |
| Cc1cccc(C)c1OCc1cc(=O)n2c(-c3ccccc3)csc2n1 | – | inconclusive [activator, partial curve] |

| Compound | growth rescue (activation) | Potency |
| --- | --- | --- |
| O=C(O)CC1c2ccccc2CCN1S(=O)(=O)c1ccc(F)cc1 (configuration not stated) | inactive: -15.2% | – |
| C/C(=N\Nc1ccc(C(=O)O)cc1)c1ccc(Br)cc1 | – | active: 10 µM |
| COCCN1C(=O)CCC1(C)c1nnnn1-c1ccc2c(c1)OCCO2 (configuration not stated) | – | inconclusive [activator, full curve] |
| O=C(CNC(=O)c1ccccc1)OCc1cccc(Br)c1 | – | inconclusive [activator, partial curve, poor fit] |
| CCOC(=O)c1ccc(NC(=O)CSc2nc3ncc(Br)c(C)c3[nH]2)cc1 | inactive: 12.9% [at 9.22 µM] | – |
| OCCNCCOc1ccccc1F | inactive: 0.376% | – |
| Cc1cc(C(=O)CCC(=O)NCC2COc3ccccc3O2)c(C)s1 (configuration not stated) | – | inconclusive [activator, single point] |
| N#Cc1ccccc1NC(=O)COC(=O)CCc1ccccc1 | – | inconclusive [activator, partial curve] |
| O=S(=O)(Nc1cccc2c1ccc1cccn12)c1cccs1 | – | inconclusive [activator, single point] |
| O=C1/C(=C\c2ccco2)SC(=S)N1c1ccc(O)cc1 | inactive: 21.1% | – |
| CCCC(=O)Nc1nc(-c2ccc(OC)cc2)cs1 | – | inconclusive [activator, partial curve] |
| CC(C)(C)c1cc(NCc2ccccn2)n2ncc(-c3ccccc3)c2n1 | inconclusive: -74.5% [activator] | – |
| COc1ccccc1/C=C/C(=O)OCC(=O)Nc1nnc(-c2ccccc2)o1 | – | inconclusive [activator, partial curve] |
| CCOC(=O)CC1COCCN1C(=O)c1cc(COc2ccc(F)cc2Cl)on1 (configuration not stated) | – | inconclusive [activator, partial curve] |
| CCOC(=O)C1CCN(C(=O)c2cc3cc(F)ccc3[nH]2)CC1 | – | inconclusive [activator, single point] |
| Cc1ccccc1C(CC(=O)c1cccs1)C(C#N)C#N (configuration not stated) | – | active: 17.8 µM |
| Cc1ccc2nc(-c3ccc(-c4cccc(Cl)c4)cc3)c(NCc3ccccc3)n2c1 | – | inconclusive [activator, partial curve] |
| COCCNC(=O)/C(C#N)=C/C=C/c1ccccc1 | inactive: 1.75% | – |
| CCn1c(Cc2ccccc2)nnc1SCC(=O)N1CCCCC1 | inactive: 10.9% | – |
| O=C(Cc1ccc(NC(=O)N2CCCCc3ccccc32)cc1)Nc1ccccc1Br | – | inconclusive [activator, partial curve] |
| COc1ccccc1N1C(=O)C2CCC(c3ccccc3)CC2C1=O (configuration not stated) | – | inconclusive [activator, partial curve] |
| O=[N+]([O-])c1cc(C(F)(F)F)ccc1Sc1nccn1Cc1ccccc1 | – | inconclusive [activator, single point] |
| CCOC(=O)c1c(C)n(-c2ccc(C)cc2)c2ccc(OCC(O)CN3CCN(C)CC3)cc12 (configuration not stated) | – | inconclusive [activator, single point] |

| Compound | growth rescue (activation) | Potency |
| --- | --- | --- |
| O=C1CC2(CCN(S(=O)(=O)c3ccccc3)CC2)Oc2ccccc21 | – | active: 20 µM |
| Cc1cccc(C)c1OCC(=O)Nc1c(C(=O)c2ccccc2)oc2ccccc12 | inactive: -15.1% | – |
| CCC(C)C(N)C1=NC(C(=O)N[C@@H](CC(C)C)C(=O)N[C@H](CCC(=O)[O-])C(=O)N[C@H](C(=O)N[C@H]2CCCCNC(=O)[C@H](CC(N)=O)NC(=O)[C@@H](CC(=O)[O-])NC(=O)[C@H](Cc3cnc[nH]3)NC(=O)[C@@H](Cc3ccccc3)NC(=O)[C@H]([C@@H](C)CC)NC(=O)[C@@H](CCCN)NC2=O)[C@@H](C)CC)CS1.[Zn+2] (some centres not stated) (X1-L[dE]IK[dOrn]I[dF]H[dD]N; lactam 4-C) | – | inconclusive [activator, partial curve] |
| CCc1ccc2c(c1)c(=O)c(C(=O)c1ccccc1)cn2CC(=O)Nc1ccc(C)c(Cl)c1 | inactive: 16.6% | – |
| Cc1ccccc1-n1nnnc1SCCCC(=O)c1ccc(F)cc1 | – | active: 35.5 µM |
| COc1ccc(N(C(=O)Cn2nnc(-c3ccccc3F)n2)C(C(=O)NCC2CCCO2)c2ccc(Cl)cc2)cc1 (configuration not stated) | – | inconclusive [activator, partial curve] |
| S=C(NCCc1ccccc1)Nc1ccc(Br)cn1 | – | inconclusive [activator, partial curve] |
| CCCn1cc(SCC(=O)Nc2ccc3c(c2)OCO3)c2ccccc21 | – | inconclusive [activator, single point] |
| COC(=O)Nc1ccc(S(=O)(=O)N(C)CC(F)(F)C(F)F)cc1 | – | inconclusive [activator, single point] |
| COc1c(C)cc(C(O)c2ncc(-c3ccc4ccccc4c3)[nH]2)cc1C (configuration not stated) | – | inconclusive [activator, full curve, poor fit] |
| O=C(COc1ccc(Cl)cc1Cl)NC(=O)NC1CCCC1 | – | inconclusive [activator, single point] |
| CCCN(CC(=O)Nc1ccccc1OC)C(=O)CCC(=O)c1ccc(OCC)cc1 | – | inconclusive [activator, single point] |
| O=C1CSC2(C(=O)N(Cc3c(F)cccc3Cl)c3ccccc32)N1c1ccc(F)c(F)c1 (configuration not stated) | – | inconclusive [activator, partial curve] |
| CN(Cc1ccc(Br)s1)C(=O)CNC(=O)c1ccc2c(c1)OCO2 | – | inconclusive [activator, partial curve] |
| CCn1nnc(NC(=O)C(C)(c2ccccc2)c2ccccc2)n1 | inactive: 9.8% | – |
| COc1ccc(-c2cc([C@H]3[C@@H]4C=CCC[C@@]4(C)C(=O)N3Cc3ccccc3)ccc2F)cc1 | – | inconclusive [activator, partial curve] |
| CC(C)N(Cc1nc(-c2ccccc2)no1)C(=O)CN(C)S(=O)(=O)c1ccccc1 | – | active: 12.6 µM |
| COc1ccc(C(=O)O/N=C(\N)c2ccccc2)c(OC)c1 | – | active: 14.1 µM |
| Cc1[nH]c2ccccc2c1/C=N/NC(=S)NCc1ccccc1 | – | inconclusive [activator, single point] |
| Cc1ccc(OCC(=O)NC(C)c2ccc(Cl)c(Cl)c2)c([N+](=O)[O-])n1 (configuration not stated) | – | inconclusive [activator, partial curve] |
| Cc1ccc(OCCNC(=O)c2ccccc2OCc2c(C)noc2C)cc1 | – | inconclusive [activator, partial curve] |
